The supplement of paper PMC9135407
Several values for one entry are separate records, joined by “and”; a condition that tells them apart may be missing. Equal entries are not always repeated. Structures can show the parent of a compound that is named as a salt. About 620 (11%) of roughly 5,800 compounds showed activity.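 How the source made its calls: active = score above a cut-off or among the top three wells of a plate; in these data no inactive exceeds 0.85.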 The entries are a selection whose mix differs from that of the whole data set.

System: primary human hepatic stellate cells (donor 1)
Experiment: scaled lipid accumulation score (0 = DMSO-like, 1 = nortriptyline-like); higher = stronger HSC inactivation (lipid re-accumulation), active = hit call of the paper
Conditions: 48 h
[1] = library stock concentration: 3.33 mM
[2] = library stock concentration: 10 mM
[3] = library stock concentration: 3.1 mM

O=C(NCC1CCOCC1)c1cnc(Nc2ccc(Cl)cc2Cl)nc1C(F)(F)F
scaled lipid accumulation score [1]: inactive: ≤ 0 | scaled lipid accumulation score [2]: inactive: ≤ 0

CN1CCc2cccc(Cl)c2CC1
scaled lipid accumulation score [2]: inactive: ≤ 0

COc1c2c(cc3c1OCO3)CCN(C)C2 [Hydrocotarnine hydrobromide]
scaled lipid accumulation score: inactive: ≤ 0

CC(N)Cc1cnc[nH]1 (configuration not stated)
scaled lipid accumulation score [2]: inactive: 0.028

O=C1Nc2ccccc2C2(CCN(CCc3ccc(C(F)(F)F)cc3)CC2)O1
scaled lipid accumulation score [2]: inactive: 0.552

NC(CCCCCP(=O)(O)O)C(=O)O (configuration not stated) [(?)-2-Amino-7-phosphonoheptanoic acid]
scaled lipid accumulation score [2]: inactive: ≤ 0

NCC(O)c1ccc(O)cc1 (configuration not stated) [Octopamine hydrochloride]
scaled lipid accumulation score [2]: inactive: ≤ 0 and inactive: 0.024

NCC(O)c1ccc(O)cc1 (configuration not stated) [(?)-Octopamine hydrochloride]
scaled lipid accumulation score [2]: inactive: ≤ -0.02

CN1CCCCC1Cn1cc(C(=O)c2cc([N+](=O)[O-])ccc2I)c2ccccc21 (configuration not stated)
scaled lipid accumulation score (library stock concentration: 1 mM): inactive: ≤ 0 | scaled lipid accumulation score [1]: inactive: 0.078 | scaled lipid accumulation score [2]: inactive: 0.822

O=c1ccc2cc(O[C@@H]3O[C@H](CO)[C@@H](O)[C@H](O)[C@H]3O)c(O)cc2o1 [Esculin Hydrate]
scaled lipid accumulation score: inactive: ≤ 0

O=c1ccc2cc(O[C@@H]3O[C@H](CO)[C@@H](O)[C@H](O)[C@H]3O)c(O)cc2o1 [Aesculin]
scaled lipid accumulation score [2]: inactive: ≤ 0

O=c1ccc2cc(O[C@@H]3O[C@H](CO)[C@@H](O)[C@H](O)[C@H]3O)c(O)cc2o1 [Esculin]
scaled lipid accumulation score [1]: inactive: ≤ 0 | scaled lipid accumulation score [2]: inactive: 0.028

O=[N+]([O-])/C=C/c1ccc2c(c1)OCO2
scaled lipid accumulation score [2]: active: 0.967

CC(C)NC(C)Cc1ccc(I)cc1 (configuration not stated) [Iofetamine hydrochloride]
scaled lipid accumulation score [2]: inactive: 0.757

Cc1ccc(/N=C/N(C)/C=N/c2ccc(C)cc2C)c(C)c1 [Amitraz]
scaled lipid accumulation score (library stock concentration: 6.8 mM): inactive: ≤ 0 | scaled lipid accumulation score [2]: inactive: ≤ -0.027

CCCN(CCC)C1Cc2cc(OC)c(OC)cc2C1
scaled lipid accumulation score [2]: inactive: ≤ 0 and inactive: ≤ -0.006

c1ccc2c(c1)Nc1ccccc1S2
scaled lipid accumulation score [2]: inactive: ≤ 0

c1ccc2c(c1)Nc1ccccc1S2 [Phenothiazine]
scaled lipid accumulation score [1]: inactive: ≤ 0 | scaled lipid accumulation score [2]: inactive: 0.074

C[C@]12CC[C@H]3[C@@H](CCC4=CC(=O)CC[C@@]43C)[C@@H]1CC[C@@H]2O [Testosterone]
scaled lipid accumulation score (library stock concentration: 6.9 mM): inactive: 0.032 | scaled lipid accumulation score [2]: inactive: 0.108 and inactive: 0.479

N=C(NCCC[C@H](N)C(=O)O)N[N+](=O)[O-] [N (g)-nitro-l-arginine]
scaled lipid accumulation score [2]: inactive: ≤ 0

N=C(NCCC[C@H](N)C(=O)O)N[N+](=O)[O-] [NG-Nitro-L-arginine]
scaled lipid accumulation score [2]: inactive: ≤ -0.055

c1ccc(CC(c2ccccc2)N2CCCCC2)cc1 (configuration not stated) [(?)-1-(1,2-Diphenylethyl)piperidine maleate]
scaled lipid accumulation score [2]: inactive: 0.27

C[C@]12CCC(=O)C(O)=C1CC[C@@H]1[C@@H]2CC[C@]2(C)C(=O)CC[C@@H]12 [Formestane]
scaled lipid accumulation score [1]: inactive: 0.067 | scaled lipid accumulation score (library stock concentration: 6.6 mM): inactive: 0.087 | scaled lipid accumulation score [2]: inactive: ≤ 0 and inactive: 0.044

CCOP(=S)(OCC)Oc1cc(C)nc(C(C)C)n1
scaled lipid accumulation score [2]: inactive: ≤ 0

CNC(C)(C)Cc1ccccc1 [Mephentermine sulfate]
scaled lipid accumulation score (library stock concentration: 7.7 mM): inactive: 0.033 | scaled lipid accumulation score [2]: inactive: 0.077

CNC(C)(C)Cc1ccccc1 [Mephentermine hemisulfate]
scaled lipid accumulation score: inactive: ≤ 0

CNC(Cc1c[nH]c2ccccc12)C(=O)O (configuration not stated) [Abrine (l)]
scaled lipid accumulation score [2]: inactive: ≤ 0

c1ccc(C2CC2)c(OCC2=NCCN2)c1 [Cirazoline hydrochloride]
scaled lipid accumulation score [2]: inactive: 0.226 and inactive: 0.199

c1ccc(C2CC2)c(OCC2=NCCN2)c1 [Cirazoline]
scaled lipid accumulation score (library stock concentration: 23.1 mM): inactive: 0.536

c1ccc(C2CC2)c(OCC2=NCCN2)c1 [Cirazoline HCl]
scaled lipid accumulation score (library stock concentration: 9.2 mM): inactive: 0.017

NCC(CP(=O)(O)O)c1ccc(Cl)cc1 (configuration not stated) [Phaclofen]
scaled lipid accumulation score [2]: inactive: 0.048

O=C(Cc1ccc(Cl)c(Cl)c1)N1CCCCC1CN1CCCC1 (configuration not stated)
scaled lipid accumulation score [2]: inactive: 0.581 and inactive: 0.566

CCC1=C[C@H]2CN3CCc4c([nH]c5ccccc45)[C@](C(=O)OC)(C2)[C@H]13 [Catharanthine]
scaled lipid accumulation score: inactive: 0.148 | scaled lipid accumulation score [1]: inactive: 0.007 | scaled lipid accumulation score [2]: inactive: 0.269

CC(C)NCC(O)c1ccc(N)c(C#N)c1 (configuration not stated) [Cimaterol]
scaled lipid accumulation score (library stock concentration: 9.1 mM): inactive: ≤ -0.006 | scaled lipid accumulation score [2]: inactive: ≤ 0 | scaled lipid accumulation score (library stock concentration: 22.8 mM): inactive: 0.279

CNCC(O)c1ccc(O)cc1 (configuration not stated) [(?)-Synephrine]
scaled lipid accumulation score [2]: inactive: ≤ 0

CNCC(O)c1ccc(O)cc1 (configuration not stated) [Synephrine HCl]
scaled lipid accumulation score [1]: inactive: ≤ 0 | scaled lipid accumulation score [2]: inactive: ≤ 0

CNCC(O)c1ccc(O)cc1 (configuration not stated) [Synephrine]
scaled lipid accumulation score [1]: inactive: 0.052 | scaled lipid accumulation score [2]: inactive: ≤ 0

CNCC(O)c1ccc(O)cc1 (configuration not stated)
scaled lipid accumulation score [2]: inactive: ≤ 0

CCOc1ccccc1-n1c(C(C)N2CCN(C(=O)COc3ccc(Cl)cc3)CC2)nc2ccccc2c1=O (configuration not stated) [Erastin]
scaled lipid accumulation score [1]: inactive: ≤ -0.009 | scaled lipid accumulation score [2]: inactive: 0.473

C[C@]12CCC(=O)C=C1CC[C@@H]1[C@@H]2CC[C@@]2(C)[C@H]1CC[C@]2(C)O [Methyltestosterone]
scaled lipid accumulation score [2]: inactive: 0.073

C=CCN1CC[C@]23c4c5ccc(O)c4O[C@H]2/C(=N/N=C2\CC[C@@]4(O)[C@H]6Cc7ccc(O)c8c7[C@@]4(CCN6CC=C)[C@H]2O8)CC[C@@]3(O)[C@H]1C5 [Naloxonazine 2HCl]
scaled lipid accumulation score [3]: inactive: 0.144

CC(C)C[C@H]1C(=O)N2CCC[C@H]2[C@]2(O)O[C@](NC(=O)[C@@H]3C=C4c5cccc6[nH]c(Br)c(c56)C[C@H]4N(C)C3)(C(C)C)C(=O)N12 [(+)-Bromocriptine methanesulfonate]
scaled lipid accumulation score [2]: inactive: 0.732

CC(C)C[C@H]1C(=O)N2CCC[C@H]2[C@]2(O)O[C@](NC(=O)[C@@H]3C=C4c5cccc6[nH]c(Br)c(c56)C[C@H]4N(C)C3)(C(C)C)C(=O)N12 [Bromocryptine mesylate]
scaled lipid accumulation score: inactive: 0.348

CC(C)C[C@H]1C(=O)N2CCC[C@H]2[C@]2(O)O[C@](NC(=O)[C@@H]3C=C4c5cccc6[nH]c(Br)c(c56)C[C@H]4N(C)C3)(C(C)C)C(=O)N12 [Bromocriptine mesylate]
scaled lipid accumulation score [3]: inactive: ≤ -0.006 | scaled lipid accumulation score [2]: inactive: ≤ 0 and inactive: 0.018
